Experimental data reported in PubChem BioAssay AID894 (National Center for Advancing Translational Sciences (NCATS), 2007).
Hit rate of the full screen: of about 150,000 compounds, about 6,500 (4.3%) were called active. The shares of active, inactive and inconclusive entries below differ from those in the screen. Calls follow the shape of the dose curve; as a rule, active = well fitted inhibition curve with a large enough effect (not every such curve was filed as active); inconclusive = small, poorly fitted or top-dose-only effect, or another doubt; inactive = no such curve, though single readings can be large or run the other way. Potencies of inconclusive entries are left out as doubtful fits.

target: 15-hydroxyprostaglandin dehydrogenase [NAD(+)] (Homo sapiens) (UniProt P15428); assay: qHTS Assay for Inhibitors of HPGD (15-Hydroxyprostaglandin Dehydrogenase); conditions: purified HPGD, NADH fluorescence kinetic, PGE2 substrate; activity change, negative = inhibition: stronger effect = lower value
Description: Human 15-Hydroxyprostaglandin dehydrogenase (HPGD) catalyzes the inactivation of prostaglandin E2, and plays a major role in cancer biology by antagonizing the oncogenic potential of cyclooxygenase type 2 (COX2). Assays are available, based on absorbance/fluorescence increase of NADH with the substrate 15-OH prostaglandin E2. References 1. Myung SJ, Rerko RM, Yan M, Platzer P, Guda K, Dotson A, Lawrence E, Dannenberg AJ, Lovgren AK, Luo G, Pretlow TP, Newman RA, Willis J, Dawson D, Markowitz SD. 15-Hydroxyprostaglandin dehydrogenase is an in vivo suppressor of colon tumorigenesis. […] 2. Yan M, Rerko RM, Platzer P, Dawson D, Willis J, Tong M, Lawrence E, Lutterbaugh J, Lu S, Willson JK, Luo G, Hensold J, Tai HH, Wilson K, Markowitz SD. 15-Hydroxyprostaglandin dehydrogenase, a COX-2 oncogene antagonist, is a TGF-beta-induced suppressor of human gastrointestinal cancers. Proc Natl Acad Sci U S A. 2004 Dec 14;101(50):17468-73. 3. Yang L, Amann JM, Kikuchi T, Porta R, Guix M, Gonzalez A, Park KH, Billheimer D, Arteaga CL, Tai HH, Dubois R, Carbone DP, Johnson DH. Inhibition of Epidermal Growth Factor Receptor Signaling Elevates 15-Hydroxyprostaglandin Dehydrogenase in Non-Small-Cell Lung Cancer. Cancer Res. 2007 Jun 15;67(12):5587-5593. Inhibition of HPGD activity was screened by utilizing prostaglandin as an electron donor and NAD+ as an electron acceptor/cofactor. An increase in the fluorescence intensity due to conversion of NAD+ to NADH was used to measure the enzyme activity. NIH Chemical Genomics Center [NCGC] Structural Genomics Consortium [SGC]
Buffer: 50 mM Tris-HCl, 0.01% Tween 20, pH 8. Enzyme Buffer: 50 mM Tris-HCl, 0.5 mM NAD+ and 0.01% Tween 20, pH 8. Reagents/Controls: Buffer in columns 3 and 4 as negative control (no enzyme). Substrate/cofactor solution: 1 mM NAD+ and 30 uM prostaglandin (Sigma, prostaglandin E2, # P5640) final concentrations dispensed throughout the plate. Enzyme: 20 nM HPGD final concentration in columns 1, 2, 5-48. Column 1 and 2 is neutral (100% activity). A titration of control inhibitor GW5074 (G6416 Sigma-Aldrich, St. Louis, MO) top concentration 10 mM in DMSO, then 1:2 dilution for a total of 16 concentrations in duplicate) was pin-transferred into column 2. Assay Steps: Three uL of enzyme were dispensed to 1536-well Greiner black solid bottom plates. Compounds and control inhibitor (23 nL) were transferred via Kalypsys PinTool. The plates were incubated for 15 min at room temperature, and then 1 uL of substrate/cofactor solution was added to start the reaction. The plates were immediately transferred to and read 5 times every 30 seconds on ViewLux High-throughput CCD imager (Perkin-Elmer) using 360 nm excitation and 450 nm emission fluorescence protocol. The fluorescence intensity difference between the last and the first time points was used to compute reaction progress.
% is scaled to controls: 0 for no effect and ±100 for the full control effect; potency is read from the fitted curve at half-maximal effect; tags tell the direction and shape of the fitted curve.

Sequence of UniProt P15428 (P15428 whole entry, looked up): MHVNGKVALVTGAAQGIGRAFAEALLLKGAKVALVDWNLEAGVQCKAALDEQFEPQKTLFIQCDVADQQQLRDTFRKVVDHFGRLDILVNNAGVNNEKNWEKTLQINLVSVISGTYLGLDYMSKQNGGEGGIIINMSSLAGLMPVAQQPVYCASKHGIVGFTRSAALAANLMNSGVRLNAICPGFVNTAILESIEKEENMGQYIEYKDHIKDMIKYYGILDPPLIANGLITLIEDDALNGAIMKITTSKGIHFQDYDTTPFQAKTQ

Compound	Potency	activity change, negative = inhibition
CCC(C)NC(=O)c1c(N)n(CCCOC)c2nc3ccccc3nc12 (stereo not given)	inconclusive [inhibitor, partial curve]	–
CC(C)c1cccc(C(C)C)c1O	inconclusive [inhibitor, partial curve]	–
c1ccc(N2CCC3(CCNCC3)CC2)nc1	inconclusive [inhibitor, partial curve]	–
CC(=O)OC1=CC2=CC[C@H]3[C@H]4CCC(=O)[C@@]4(C)CC(=O)[C@]3(S)[C@]2(C)CC1	–	inactive: -4.49%
CCC(=NCCCn1ccnc1)c1c(O)n(Cc2ccccc2)c(=O)[nH]c1=O	inconclusive [inhibitor, partial curve]	–
CC(C)c1cc2c(c(O)c1O)[C@@]1(C(=O)O)CCCC(C)(C)[C@@H]1CC2	active: 15.8 µM	–
CC1=NN(c2ccccc2)C(=O)C1/C=C1/C(=O)NC(=O)N(c2cc(C)cc(C)c2)C1=O (stereo not given)	–	inactive: -14.4%
CC(=O)N1CCC2(CC1)CC(=O)c1cc(OCC(=O)N3CCN(C)CC3)ccc1O2	inconclusive [inhibitor, partial curve]	–
NC(=O)c1sc2nc3c(c(-c4cccs4)c2c1N)CCCC3	inconclusive [inhibitor, partial curve]	–
Cn1c(=O)n(CC(=O)N2CCC3(CC2)OCCO3)c(=O)c2ccccc21	–	inactive: -19%
CN(C)C(=O)Oc1cccc(-c2cn3cc(Cl)ccc3n2)c1	inconclusive [inhibitor, partial curve]	–
Cc1ccc2c(c1)CNc1ccccc1O2	–	inactive: -28.7%
CC/C=C\C/C=C\C/C=C\C/C=C\C/C=C\CCCC(=O)NCCCC(=O)O	–	inactive: -3.09%
CC[C@@]1(O)CC(O)c2c(cc3c(c2O)C(=O)c2c(O)ccc(O)c2C3=O)C1C(=O)OC (stereo not given in full)	–	inactive: -4.92%
Cc1ccc(N2C(=O)NC(=O)/C(=C\c3cc(C)n(-c4sc5c(c4C#N)CCCC5)c3C)C2=O)cc1	active: 10 µM	–
Cc1cc(OCC(=O)O)c2c3c(c(=O)oc2c1)CCCC3	inconclusive [inhibitor, partial curve]	–
CN(C)c1ccc2c(c1)N=C(c1ccco1)OP2(=S)N1CCOCC1 (stereo not given)	active: 17.8 µM	–
CN(Cc1ccccc1)C(=O)Cn1c(=O)oc2cc(S(=O)(=O)NCc3ccccc3)ccc21	inconclusive [inhibitor, partial curve]	–
Cc1ccnc(-n2c(C)cc(/C=C3\C(=O)NC(=S)N(C)C3=O)c2C)c1	active: 20 µM	–
CCCCC(C)C(OC(=O)CC(CC(=O)O)C(=O)O)C(CC(C)CC(O)CCCCC(O)CC(O)C(C)N)OC(=O)CC(CC(=O)O)C(=O)O (stereo not given)	–	inactive: -7.35%
